Laboratory results published in patent US20240174629A1 (OTCPHARM JSC, priority 2021, published 2024).
≈ marks a conversion by molar mass, not a printed value. Where a name gives a salt, the structure may show the parent alone. Read-outs that look alike come from different tables or passages of the source.

Tested on: influenza A/PuertoRico/8/34 (H1N1)
Experiment: Activity against the influenza virus, virus titer reduction in MDCK cells (hemagglutination)
Settings: for IC50: Influenza A virus, H1N1, MDCK; for SI (selectivity index): ratio of CC50 to IC50
[1] = MDCK cells, influenza A/PuertoRico/8/34 (H1N1), MOI 0.01, mean±SD, read-out: IC50 (A, H1N1)

Row | SMILES | IC50 [1] [µg/mL] | SI (selectivity index) | IC50 (read-out: IC50 (A, H1N1), MDCK cells, influenza A/PuertoRico/8/34 (H1N1), MOI 0.01, mean±SD) [µg/mL]
1 | CCOC(=O)c1c(N(Cc2ccccc2)C(C)=O)sc2c(Cl)c(O)ccc12 [Example 1, Ethyl 2-[acetyl(benzyl)amino]-7-chloro-6-hydroxy-1-benzothiophene-3-carboxylate] | 6.7 ± 1.1 (≈ 16.6 µM) | 45 | –
2 | CCOC(=O)c1c(N(Cc2ccccc2)C(C)=O)sc2cc(O)ccc12 [Example 2, Ethyl 2-[acetyl(benzyl)amino]-6-hydroxy-1-benzothiophene-3-carboxylate] | 0.5 ± 0.7 (≈ 1.35 µM) | 23 | –
3 | COC(=O)c1c(N(Cc2ccccc2)C(C)=O)sc2cc(O)ccc12 [Example 4, Methyl 2-[acetyl(benzyl)amino]-6-hydroxy-1-benzothiophene-3-carboxylate] | 0.34 ± 0.81 (≈ 0.957 µM) | 600 | –
4 | CC(=O)N(Cc1ccccc1)c1sc2c(Cl)c(O)ccc2c1C(=O)OC(C)(C)C [Example 5, Tert-butyl 2-[acetyl(benzyl)amino]-7-chloro-6-hydroxy-1-benzothiophene-3-carboxylate] | 1 (≈ 2.32 µM) | 4 | –
5 | CC(=O)N(Cc1ccccc1)c1sc2c(Cl)c(O)ccc2c1C(=O)OC(C)C [Example 7, Isopropyl 2-[acetyl(benzyl)amino]-7-chloro-6-hydroxy-1-benzothiophene-3-carboxylate] | 0.3 ± 0.5 (≈ 0.718 µM) | 7 | –
6 | CC(=O)N(Cc1ccccc1)c1sc2cc(O)ccc2c1C(=O)OC(C)C [Example 8, Isopropyl 2-[acetyl(benzyl)amino]-6-hydroxy-1-benzothiophene-3-carboxylate] | 0.3 ± 0.4 (≈ 0.782 µM) | 46 | –
7 | CCOC(=O)c1c(N(Cc2ccccc2Cl)C(C)=O)sc2c(Cl)c(O)ccc12 [Example 9, Ethyl 2-[acetyl(2-chlorobenzyl)amino]-7-chloro-6-hydroxy-1-benzothiophene-3-carboxylate] | 0.08 ± 0.003 (≈ 0.183 µM) | 104 | –
8 | COC(=O)c1c(N(Cc2ccccc2Cl)C(C)=O)sc2cc(O)ccc12 [Example 16, Methyl 2-[acetyl(2-chlorobenzyl)amino]-6-hydroxy-1-benzothiophene-3-carboxylate] | – | 7 | < 3
9 | COC(=O)c1c(N(Cc2ccc(C(F)(F)F)cc2)C(C)=O)sc2c(Cl)c(O)ccc12 [Example 21, Methyl 2-[acetyl(4-trifluoromethylbenzyl)amino]-7-chloro-6-hydroxy-1-benzothiophene-3-carboxylate] | 0.5 ± 0.9 (≈ 1.09 µM) | 11 | –
10 | COC(=O)c1c(N(Cc2ccc(C(F)(F)F)cc2)C(C)=O)sc2cc(O)ccc12 [Example 22, Methyl 2-[acetyl(4-trifluoromethylbenzyl)amino]-6-hydroxy-1-benzothiophene-3-carboxylate] | 0.8 ± 1.2 (≈ 1.89 µM) | 4 | –
11 | COC(=O)c1c(N(Cc2ccccc2F)C(C)=O)sc2cc(O)ccc12 [Example 24, Methyl 2-[acetyl(2-fluorobenzyl)amino]-6-hydroxy-1-benzothiophene-3-carboxylate] | 31 ± 2 (≈ 83 µM) | 10 | –
12 | COC(=O)c1c(N(Cc2cccc(F)c2)C(C)=O)sc2c(Cl)c(O)ccc12 [Example 25, Methyl 2-[acetyl(3-fluorobenzyl)amino]-7-chloro-6-hydroxy-1-benzothiophene-3-carboxylate] | 2.5 ± 0.3 (≈ 6.13 µM) | 10 | –
13 | COC(=O)c1c(N(Cc2ccc(F)cc2)C(C)=O)sc2c(Cl)c(O)ccc12 [Example 27, Methyl 2-[acetyl(4-fluorobenzyl)amino]-7-chloro-6-hydroxy-1-benzothiophene-3-carboxylate] | 3.98 ± 0.4 (≈ 9.76 µM) | 10 | –
14 | COC(=O)c1c(N(Cc2ccc(F)cc2)C(C)=O)sc2cc(O)ccc12 [Example 28, Methyl 2-[acetyl(4-fluorobenzyl)amino]-6-hydroxy-1-benzothiophene-3-carboxylate] | 5.9 ± 0.7 (≈ 15.8 µM) | 41 | –
15 | COC(=O)c1c(N(Cc2ccc(F)cc2F)C(C)=O)sc2c(Cl)c(O)ccc12 [Example 29, Methyl 2-[acetyl(2,4-difluorobenzyl)amino]-7-chloro-6-hydroxy-1-benzothiophene-3-carboxylate] | 19 ± 2.1 (≈ 44.6 µM) | 16 | –
16 | COC(=O)c1c(N(Cc2ccc(F)cc2F)C(C)=O)sc2cc(O)ccc12 [Example 30, Methyl 2-[acetyl(2,4-difluorobenzyl)amino]-6-hydroxy-1-benzothiophene-3-carboxylate] | 30 ± 2.8 (≈ 76.6 µM) | 10 | –
17 | COC(=O)c1c(N(Cc2cccc3ccccc23)C(C)=O)sc2cc(O)ccc12 [Example 32, Methyl 2-[acetyl(1-naphthylmethyl)amino]-6-hydroxy-1-benzothiophene-3-carboxylate] | 68 ± 8 (≈ 168 µM) | 4 | –
18 | COC(=O)c1c(N(Cc2ccc3ccccc3c2)C(C)=O)sc2c(Cl)c(O)ccc12 [Example 33, Methyl 2-[acetyl(2-naphthylmethyl)amino]-7-chloro-6-hydroxy-1-benzothiophene-3-carboxylate] | 1 (≈ 2.27 µM) | 4 | –
19 | COC(=O)c1c(N(CCc2ccccc2)C(C)=O)sc2cc(O)ccc12 [Example 36, Methyl 2-[acetyl(2-phenylethyl)amino]-6-hydroxy-1-benzothiophene-3-carboxylate] | 4.9 ± 0.6 (≈ 13.3 µM) | 61 | –

Row | SMILES | IC50 [1] [µg/mL] | SI (selectivity index) | IC50 (read-out: IC50 (A, H1N1), MDCK cells, influenza A/PuertoRico/8/34 (H1N1), MOI 0.01, mean±SD) [µg/mL]
20 | COC(=O)c1c(N(C(C)=O)C(C)c2ccccc2)sc2c(Cl)c(O)ccc12 (stereo not shown) [Example 37, Methyl 2-[acetyl(1-phenylethyl)amino]-7-chloro-6-hydroxy-1-benzothiophene-3-carboxylate] | 4.9 ± 0.6 (≈ 12.1 µM) | 5 | –
21 | COC(=O)c1c(N(C(C)=O)C(C)c2ccccc2)sc2cc(O)ccc12 (stereo not shown) [Example 38, Methyl 2-[acetyl(1-phenylethyl)amino]-6-hydroxy-1-benzothiophene-3-carboxylate] | 7.9 ± 1 (≈ 21.4 µM) | 4 | –
22 | COC(=O)c1c(N(Cc2ccc(C(C)C)cc2)C(C)=O)sc2c(Cl)c(O)ccc12 [Example 41, Methyl 2-[acetyl(4-isopropylbenzyl)amino]-7-chloro-6-hydroxy-1-benzothiophene-3-carboxylate] | 1 (≈ 2.32 µM) | 5 | –
23 | COC(=O)c1c(N(Cc2ccc(C(C)C)cc2)C(C)=O)sc2cc(O)ccc12 [Example 42, Methyl 2-[acetyl(4-isopropylbenzyl)amino]-6-hydroxy-1-benzothiophene-3-carboxylate] | 3 (≈ 7.55 µM) | 3 | –
24 | CC(=O)N(Cc1ccccc1)c1sc2cc(O)ccc2c1C#N [Example 47, N-benzyl-N-(3-cyano-6-hydroxy-1-benzothiophene-2-yl)acetamide] | 0.6 ± 0.7 (≈ 1.86 µM) | 28 | –
25 | COC(=O)c1c(N(Cc2ccccc2)C(C)=O)sc2c(CN(C)C)c(O)ccc12 [Example 50, Methyl 2-[acelyl (benzyl)amino-7-[(dimethylamino)methyl]-6-hydroxy-1-benzothiophene-3-carboxylate] | 0.6 ± 0.6 (≈ 1.45 µM) | 303 | –
26 | COC(=O)c1c(N(Cc2ccccc2Cl)C(C)=O)sc2c(CN(C)C)c(O)ccc12 [Example 51] | 1 (≈ 2.24 µM) | 300 | –
27 | COC(=O)c1c(N(Cc2cccc(F)c2)C(C)=O)sc2c(CN(C)C)c(O)ccc12 [Example 53] | 3 (≈ 6.97 µM) | 100 | –
28 | COC(=O)c1c(N(Cc2ccc(F)cc2F)C(C)=O)sc2c(CN(C)C)c(O)ccc12 [Example 55] | 36 ± 4.1 (≈ 80.3 µM) | 8 | –
29 | COC(=O)c1c(N(CCc2ccccc2F)C(C)=O)sc2c(CN(C)C)c(O)ccc12 [Example 56, Methyl 2-{acetyl[2-(2-fluorophenyl)ethyl]amino}-7-[(dimethylamino)methyl]-6-hydroxy-1-benzothiophene-3-carboxylate] | 3.3 ± 0.4 (≈ 7.42 µM) | 91 | –
30 | COC(=O)c1c(N(Cc2ccccc2C)C(C)=O)sc2c(CN(C)C)c(O)ccc12 [Example 58] | 19 ± 2.2 (≈ 44.5 µM) | 16 | –
31 | COC(=O)c1c(N(Cc2ccccc2C(F)(F)F)C(C)=O)sc2c(CN(C)C)c(O)ccc12 [Example 59] | 1 (≈ 2.08 µM) | 300 | –
32 | COC(=O)c1c(N(Cc2ccccc2C#N)C(C)=O)sc2c(CN(C)C)c(O)ccc12 [Example 60] | 4 (≈ 9.14 µM) | 75 | –
33 | COC(=O)c1c(N(Cc2ccc(F)cc2)C(C)=O)sc2c(CN(C)C)c(O)ccc12 [Example 62, Methyl 2-[acetyl(4-fluorobenzyl)amino-7-[(dimethylamino)methyl]-6-hydroxy-1-benzothiophene-3-carboxylate hydrochloride] | 11.2 ± 1.3 | 8 | –
34 | CCN(CC)Cc1c(O)ccc2c(C(=O)OC)c(N(Cc3ccccc3)C(C)=O)sc12 [Example 64, hydrochloride] | 25.3 ± 3.6 | 6 | –
35 | COC(=O)c1c(N(Cc2ccccc2)C(C)=O)sc2c(CN3CCN(C)CC3)c(O)ccc12 [Example 65, Methyl 2-[acetyl(benzyl)amino-6-hydroxy-7-[(4-methylpiperazin-1-yl)methyl]-1-benzothiophene-3-carboxylate hydrochloride] | 5.9 ± 0.6 | 3 | –
36 | CC(=O)N(Cc1ccccc1)c1sc2c(Cl)c(O)ccc2c1C(=O)O [Example 66, 2-[acetyl(benzyl)amino]-7-chloro-6-hydroxy-1-benzothiophene-3-carboxylic acid] | 5.3 ± 0.9 (≈ 14.1 µM) | 57 | –
37 | CC(=O)N(Cc1ccccc1)c1sc2cc(O)ccc2c1C(=O)O [Example 67, 2-[acetyl(benzyl)amino]-6-hydroxy-1-benzothiophene-3-carboxylic acid] | 160 ± 19 (≈ 469 µM) | 2 | –
38 | CC(=O)N(Cc1ccccc1Cl)c1sc2c(Cl)c(O)ccc2c1C(=O)O [Example 68, 2-[acetyl(2-chlorobenzyl)amino]-7-chloro-6-hydroxy-1-benzothiophene-3-carboxylic acid] | 23 ± 3 (≈ 56.1 µM) | 3 | –
